Experimental data reported in publication PMC9911399, “Two distinct binding modes provide the RNA-binding protein RbFox with extraordinary sequence specificity”.
Where a chain is given by its changes, count along the chain named. The list shows a part of the results.

T1: RBFOX1 RRM (Homo sapiens, UniProt Q9NWB1 109-208)
T1 sequence: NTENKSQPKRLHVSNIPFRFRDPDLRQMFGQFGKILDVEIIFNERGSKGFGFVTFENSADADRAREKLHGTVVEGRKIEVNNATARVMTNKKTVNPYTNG

B1: GCCCCCU (DNA:RNA)
RNA: GGGAGACCGGAAUUCAGAUUGUCCGCCCCCUUUAAAUCCCGUCGUAGCCACCA
DNA 1: CAATCTGAATTCCGGTCTCCC
DNA 2: TGGTGGCTACGACGGGATT
B2: CAUUUUA (DNA:RNA)
RNA: GGGAGACCGGAAUUCAGAUUGUCCCAUUUUAUUAAAUCCCGUCGUAGCCACCA
DNA 1: CAATCTGAATTCCGGTCTCCC
DNA 2: TGGTGGCTACGACGGGATT
B3: UCCAACG (DNA:RNA)
RNA: B1 RNA with G25U, C28A, C29A, U31G
DNA 1: CAATCTGAATTCCGGTCTCCC
DNA 2: TGGTGGCTACGACGGGATT
B4: AACACGU (DNA:RNA)
RNA: B1 RNA with G25A, C26A, C28A, C30G
DNA 1: CAATCTGAATTCCGGTCTCCC
DNA 2: TGGTGGCTACGACGGGATT
B5: GGUGUUC (DNA:RNA)
RNA: B2 RNA with C25G, A26G, U28G, A31C
DNA 1: CAATCTGAATTCCGGTCTCCC
DNA 2: TGGTGGCTACGACGGGATT
B6: AUAGCCG (DNA:RNA)
RNA: B1 RNA with G25A, C26U, C27A, C28G, U31G
DNA 1: CAATCTGAATTCCGGTCTCCC
DNA 2: TGGTGGCTACGACGGGATT
B7: CCCUGGG (DNA:RNA)
RNA: B2 RNA with A26C, U27C, U29G, U30G, A31G
DNA 1: CAATCTGAATTCCGGTCTCCC
DNA 2: TGGTGGCTACGACGGGATT
B8: GAGCGGU (DNA:RNA)
RNA: B1 RNA with C26A, C27G, C29G, C30G
DNA 1: CAATCTGAATTCCGGTCTCCC
DNA 2: TGGTGGCTACGACGGGATT
B9: UUGGCAU (DNA:RNA)
RNA: B1 RNA with G25U, C26U, C27G, C28G, C30A
DNA 1: CAATCTGAATTCCGGTCTCCC
DNA 2: TGGTGGCTACGACGGGATT

Biological target: T1, RBFOX1 RRM
Test: EMSA; HiTS-Eq, 1 nM pool, 10 min; buffer printed only for the single-RNA assays: 10 mM Tris pH 7.5, 150 mM NaCl, 3.4 mM EDTA, 0.001% NP-40, 30 C
Conditions: tags: His6 N-terminal (pET28a); label: 5' 32P
Outline: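 These values rest on relative association constants, computed from read-count changes of each RNA species versus the control reaction and normalised to the cognate motif. Reads came from free RNA recovered by 8% native PAGE after purified RbFox RRM (wild type or mutant) at increasing concentrations was equilibrated for 10 min in 50 µL with 1 nM of a 5′-radiolabelled pool with 7 randomized nucleotides and DNA-annealed flanks.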

| Binder | binding signal |
| --- | --- |
| B1 | 0.00688 KA relative to UGCAUGU |
| B2 | 0.00214 KA relative to UGCAUGU |
| B3 | 0.00691 KA relative to UGCAUGU |
| B4 | 0.00299 KA relative to UGCAUGU |
| B5 | 0.0173 KA relative to UGCAUGU |
| B6 | 0.00214 KA relative to UGCAUGU |
| B7 | 0.00714 KA relative to UGCAUGU |
| B8 | 0.0181 KA relative to UGCAUGU |
| B9 | 0.0206 KA relative to UGCAUGU |
